Measurements: patent US7214696B2, “Compositions and methods for stabilizing transthyretin and inhibiting transthyretin misfolding” (The Scripps Research Institute, priority 2002, dated 2007)
Values belong to the compound of their own block, whether it stands above or below them.

Tests used:
WT TTR [1] = biological target: T1, WT TTR (Homo sapiens, UniProt P02766); assay: Benzoxazole fibril formation assay (pH 4.4, 72 h, turbidity 400 nm), Example 5; format: biochemical; conditions: TTR 3.6 μM, test compound 7.2 μM
Method: The benzoxazoles were evaluated using a series of analyses of increasing stringency. WT TTR (3.6 μM) was incubated for 30 min (pH 7, 37° C.) with a test compound (7.2 μM). Since at least one molecule of the test compound must bind to each molecule of TTR tetramer to be able to stabilize it, a test compound concentration of 7.2 μM is only twice the minimum effective concentration. The pH was then adjusted to 4.4, the optimal pH for fibrilization. The amount of amyloid formed after 72 h (37° C.) in the presence of the test compound was determined by turbidity at 400 nm and is expressed as % fibril formation (ff), 100% being the amount formed by TTR alone. Of the 28 compounds tested, 11 reduced fibril formation to negligible levels (ff<10%; FIG. 7).

TTR in whole blood = biological target: T2, TTR in whole blood (Homo sapiens, UniProt P02766); assay: Binding stoichiometry of OH-PCBs in whole blood, Example 4
T2 construct: Whole blood was drawn from healthy volunteers; from tissue; host or cells: human whole blood from healthy volunteers
From the text: Up to two PCBs can bind to the two identical thyroid hormone binding sites in a TTR tetramer. […] Several of the hydroxylated PCBs (e.g., 16 and 22) approach a binding stoichiometry of 2.

[2] = biological target: T3, TTR in human blood plasma (Homo sapiens, UniProt P02766); format: binding; parameters: from tissue; host or cells: human blood plasma from healthy volunteers; conditions: test compound 10.8 μM, 24 h, 37° C.
Method: Human blood plasma (TTR conc. 3.6–5.4 μM) was incubated for 24 h with the test compound (10.8 μM) at 37° C. The TTR and any bound inhibitor were immunoprecipitated using a sepharose-bound polyclonal TTR antibody. The TTR with or without inhibitor bound was liberated from the resin at high pH, and the inhibitor:TTR stoichiometry was ascertained by HPLC analysis (FIG. 8).

WT TTR tetramer [3] = biological target: T4, WT TTR tetramer (Homo sapiens, UniProt P02766); assay: WT TTR tetramer dissociation rate in 6 M urea, Example 1; format: biochemical; conditions: TTR 1.8 μM
Method: Tetramer dissociation rates were measured by linking slow quaternary structural changes to the unfolding transition, with a rate of 5×10^5 times that of dissociation (Hammarström et al., Proc. Natl. Acad. Sci. U.S.A. 99, 16427 (2002)). Denaturation-detected dissociation is irreversible because the concentration of urea used (>6.0 M) cannot support refolding.

[4] = biological target: T3, TTR in human blood plasma; assay: Immunoprecipitation/HPLC binding stoichiometry of PCBs and OH-PCBs in plasma, Example 4; parameters: from tissue; host or cells: human blood plasma from healthy volunteers; conditions: OH-PCB 10.8 μM in human blood plasma; post-wash lower limit
[5] = biological target: wt transthyretin tetramer (Homo sapiens, UniProt P02766); assay: TTR tetramer dissociation in 6 M urea, Example 5; conditions: TTR 1.8 μM, inhibitor 3.6 μM
[6] = biological target: T3, TTR in human blood plasma; assay: Plasma selectivity: antibody capture/HPLC binding stoichiometry, Example 2; conditions: 10.8 μM inhibitor in human plasma, 37° C., 24 h; post-wash lower limit; maximum 2 per TTR tetramer
WT TTR [7] = biological target: T1, WT TTR; assay: Isothermal titration calorimetry, dissociation constants, Example 2; format: binding; conditions: ITC; for Kd: wild type TTR, pH 8.0, 25° C.
Method: The dissociation constants characterizing the binding of 18 and 20 to WT TTR were determined by isothermal titration calorimetry using a Microcal instrument (Microcal Inc., Northhampton, Md.). […] The initial injection of 2.5 μL was followed by 50 injections of 5.0 μL each (25° C.). […] The data were fit by a nonlinear least squares approach with four adjustable parameters, namely, K1, ΔH1, K2, ΔH2 using the ITC data analysis module in ORIGIN version 2.9 provided by Microcal.
Isothermal titration calorimetry (ITC) was employed to determine the binding constants of 18 and 20 to TTR at pH 8.0 (25° C.).

TTR [8] = biological target: T5, TTR (Homo sapiens, UniProt P02766); assay: TTR quaternary structure at pH 4.4 by equilibrium and velocity analytical ultracentrifugation, Example 2; format: biochemical; conditions: pH 4.4, TTR 3.6 μM, inhibitor 3.6 μM or 7.2 μM
Method: The TTR quaternary structure in the presence of inhibitors at pH 4.4 was analyzed. The mechanism by which 18 and 20 stabilize TTR was evaluated by incubating the protein (3.6 μM) for 72 h under the conditions of the stagnant fibril formation assay in the presence of either 3.6 μM or 7.2 μM inhibitor. After 72 h, the samples were centrifuged (14,000×g) and the supernatant was removed from any solid that was formed in the assay. […] The acquisition and analysis of data was performed as described previously.
To ensure that the inhibitors are stabilizing the tetrameric form of TTR (3.6 μM), the quaternary structure of TTR was probed with equilibrium and velocity analytical ultracentrifugation studies. The quaternary structure of the protein after 72 h incubation with 18 and 20 (3.6 μM or 7.2 μM) at pH 4.4 was determined.

WT TTR [9] = biological target: T1, WT TTR; conditions: pH 4.4, 3.6 or 7.2 μM inhibitor, 3.6 μM TTR
WT TTR tetramer [10] = biological target: T4, WT TTR tetramer; assay: TTR tetramer dissociation kinetics by linked monomer unfolding in 6.5 M urea (far-UV CD), Example 2; conditions: 3.6 μM TTR, 3.6 or 7.2 μM inhibitor; for effect on TTR tetramer dissociation in 6.5 M urea: 168 h time-course
WT TTR [11] = biological target: T1, WT TTR; assay: Isothermal titration calorimetry of OH-PCB 18 and TTR, Example 4; format: binding
Method: When substoichiometric (<1:1) amounts of 18 are added to TTR, the predominant species observed in the mass spectrometer are apo-TTR and the TTR•182 complex, consistent with positively cooperative binding. […] Isothermal titration calorimetry studies carried out under physiological conditions reveal that the binding of OH-PCB 18 to WT TTR fits best to a model where the dissociation constants are identical Kds (3.2±1.8 nM). […] Attempts to fit the collected data to models of positively or negatively cooperative binding yielded poor fits.
A 25 μM solution of compound 18 (in 10 mM phosphate pH 7.6, 100 mM KCl, 1 mM EDTA, 8% DMSO) was titrated into a 1.2 μM solution of TTR in an identical buffer using a Microcal MCS Isothermal Titration Calorimeter (Microcal, Northampton, Mass.). An initial injection of 2 μL was followed by 25 injections of 10 μL at 25° C. The thermogram was integrated and a blank was subtracted to yield a binding isotherm that fit best to a model of two identical binding sites using the ITC data analysis package in ORIGIN 5.0 (Microcal).

TTR [12] = biological target: T5, TTR; assay: Wash-associated loss of PCB from immobilized recombinant TTR, Example 4; format: binding; parameters: made in house; host or cells: Escherichia coli BL21/DE3 Epicurian gold, pmmHα plasmid; conditions: 10.8 μM compound, recombinant TTR 3.6 μM
Method: PCBs and OH-PCBs (10.8 μM) were incubated with recombinant TTR (3.6 μM) to evaluate the stoichiometry of small molecule bound to immobilized TTR after each wash step. […] Quantification of wash-associated losses allows one to estimate the true binding stoichiometry of PCBs and OH-PCBs in plasma.
The amount of PCB (or OH-PCB) that washes off of the antibody•TTR•PCB complex during the washing steps was evaluated using recombinant WT TTR.

TTR [13] = biological target: T5, TTR; assay: Sedimentation velocity analytical ultracentrifugation, Example 5; format: biochemical; conditions: TTR 3.6 μM, 72 h, pH 4.4, 37° C.
Method: To confirm that 20 inhibits TTR fibril formation by binding strongly to the tetramer, isothermal titration calorimetry (ITC) and sedimentation velocity experiments were conducted with wt TTR. […] For the sedimentation velocity experiments, TTR (3.6 μM) was incubated with 20 (3.6 μM, 7.2 μM, 36 μM) under optimal fibrilization conditions (72 h, pH 4.4, 37° C.).
The quaternary structure of TTR in the presence of 20 was observed using sedimentation velocity analytical ultracentrifugation. The samples were incubated with 20 at 3.6, 7.2 or 36 μM for 72 h. The data were collected on a temperature-controlled Beckman XL-I analytical ultracentrifuge (equipped with an An60Ti rotor and photoelectric scanner). A double sector cell, equipped with a 12 mm Epon centerpiece and sapphire windows, was loaded with 400–420 μL of sample using a syringe. Data were collected at rotor speeds of 3000 and 50000 rpm in continuous mode at 25° C., with a step size of 0.005 cm employing an average of 1 scan per point. Detection was carried out at 280 nm. The data were subjected to time-derivative analysis using the program DCDT+ developed by Philo (Philo, 2000; Stafford, 1992). […] The molecular weight of each species was determined by methods reported previously (Petrassi, et al 2000).

TTR [14] = biological target: T5, TTR; conditions: read-out: Kd2; cited from earlier work

activity in the fibril formation assay (WT TTR [1]): excellent inhibitory activity
Equivalents Bound (Blood) (TTR in whole blood): 0.86
Compound: 2′,6′-Difluorobiphenyl-4-carboxylic acid [Compound 20]
inhibitor:TTR binding stoichiometry in human blood plasma [2]: displayed the highest binding stoichiometries

Equivalents Bound (Blood) (TTR in whole blood): 0.57
Equivalents Bound (Plasma) [4]: 0.83 ± 0.19
Compound: 3′,5′-Difluorobiphenyl-4-ol [Compound 9]
protection of the tetramer from dissociation in 6 M urea by T·I and T·I2 (WT TTR tetramer [3]): prevented tetramer dissociation in 6 M urea

unfolding after 168 h [5]: 90%
activity in the fibril formation assay (WT TTR [1]): active in the fibril formation assay
Compound: 4-Hydroxybiphenyl-3-carboxylic acid [Compound 27]

Plasma Selectivity (equiv bound) [6]: 1.27 ± 0.12 equiv bound
binding at the first site relative to the second site (Kd2/Kd1) (WT TTR [7]; negative cooperativity): approximately 120 times
Kd (WT TTR [7]; read-out: Kd1): 9 nM
Kd (WT TTR [7]; read-out: Kd2): 1100 nM
TTR quaternary structure after 72 h incubation with inhibitor (TTR [8]): The tetramer was the dominant species
Compound: O=C(O)c1ccc(-c2cc(F)cc(F)c2)cc1 [Compound 18, 3′,5′-Difluorobiphenyl-4-carboxylic acid]

time for which tetramer dissociation was prevented [5]: at least 168 h
performance in slowing TTR fibril formation under acidic conditions (WT TTR [9]): perform exceptionally well
rank among inhibitors of tetramer dissociation in 6.5 M urea (WT TTR tetramer [10]): superior
Kd (WT TTR [7]; read-out: Kd2): 1300 nM
TTR quaternary structure after 72 h incubation with inhibitor (TTR [8]): The tetramer was the dominant species
Compound: O=C(O)c1ccc(-c2c(F)cccc2F)cc1 [Compound 20, 2′,6′-Difluorobiphenyl-4-carboxylic acid]
effect on TTR tetramer dissociation in 6.5 M urea (WT TTR tetramer [10]): overall reduction in the extent of tetramer dissociation

Plasma Selectivity (equiv bound) [6]: 0.89 ± 0.09 equiv bound
performance in slowing TTR fibril formation under acidic conditions (WT TTR [9]): perform exceptionally well
rank among inhibitors of tetramer dissociation in 6.5 M urea (WT TTR tetramer [10]): superior
Compound: OCc1cccc(-c2cc(Cl)cc(Cl)c2)c1 [Compound 48, 3′,5′-Dichlorobiphenyl-3-yl-methanol]
effect on TTR tetramer dissociation in 6.5 M urea (WT TTR tetramer [10]): overall reduction in the extent of tetramer dissociation

Compound: Oc1c(Cl)cc(-c2cc(Cl)c(O)c(Cl)c2)cc1Cl [OH-PCB 18]
Kd (WT TTR [11]; ITC, physiological conditions, 25° C., read-out: Kds (two identical binding sites)): 3.2 ± 1.8 nM
stabilization of the native state of TTR (WT TTR [11]; dictated by the nM Kds): > 3 kcal/mol

Compound: Clc1cccc(-c2ccccc2)c1 [PCB 2]
decrease of stoichiometry after 5 washes (wash-associated loss) (TTR [12]): 10%

Compound: Clc1ccccc1-c1ccccc1Cl [PCB 4]
decrease of stoichiometry after 5 washes (wash-associated loss) (TTR [12]): 45%

Compound: O=C(O)c1ccc2nc(-c3c(Cl)cccc3Cl)oc2c1 [benzoxazole 20, 6-Carboxy-2-(2,6-dichlorophe2nyl)-benzoxazole]
TTR species in solution (TTR [13]; inhibitor 3.6 μM): the TTR remaining in solution was tetrameric
TTR species in solution (TTR [13]; inhibitor 7.2 or 36 μM): only detectable species in solution

Compound: O=C(O)Cc1ccccc1Nc1c(Cl)cccc1Cl [diclofenac]
Kd (TTR [14]): 1200 nM
